Laboratory results taken from the supplement of paper PMC7125110.
± gives the standard error. This sample is rich in variants without activity.

B1: glmS ribozyme (parent)
chain: AUAAAAGCGCCAGAACUACAGAAAUGUAGUUGACGAGGAGGAGGUUUAUCGAAUUUUCGGCGGAUGCCUCCAAA

Variants of: B1
Assay: self-cleavage kobs at 10000 uM GlcN6P; higher = faster cleavage; RNA array
Conditions: with glucosamine-6-phosphate
Summary of the method: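 Tracking of barcoded ribozyme variants used a hybridised Cy3 probe at 37 °C, after in situ transcription by E. coli RNA polymerase on sequenced MiSeq chips. The flowed solution held 40 μM to 10 mM glucosamine-6-phosphate in HEPES/KCl/Mg(OAc)2 buffer, and imaging ran over ~14 h. kobs was taken from exponential decay fits of normalised per-tile medians, and kcat and KM from weighted Michaelis–Menten fits.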

| Variant | self-cleavage kobs at 10000 uM GlcN6P [s⁻¹] |
| --- | --- |
| G13A A36C G38U | < 1e-05 |
| C8A G9U A15G | < 1e-05 |
| C8G G37C A53U | < 1e-05 |
| C8G U30A A39G G41C U54G C67A | < 1e-05 |
| A15C A42C C67G C68U | < 1e-05 |
| G7U G32C C61G | < 1e-05 |
| C10A A14U A52C | < 1e-05 |
| A12U U31C U49C G63C | < 1e-05 |
| C8A C11G U49C C67G | < 1e-05 |
| A6U C11A G62A C71U | < 1e-05 |
| G35U G38C A42C | < 1e-05 |
| C10G A15U G29C A36U U55C | < 1e-05 |
| C10U A42C A52U | < 1e-05 |
| A36G U46A U55G | < 1e-05 |
| G7C C10A A48U G59A U65C | < 1e-05 |
| G35C C50G A53C | 3.34e-05 ± 8.6e-06 |
| A14U C34G A48U | < 1e-05 |
| U30C G63C C71U | < 1e-05 |
| C16G U45C C67G | 0.000811 ± 0.00018 |
| A12U G38A G60U | < 1e-05 |
| G35U A39G A42U A64G | < 1e-05 |
| G44C U65G C67U | 0.000247 ± 8.5e-05 |

| Variant | self-cleavage kobs at 10000 uM GlcN6P [s⁻¹] |
| --- | --- |
| G7U G9U G44A C68G | < 1e-05 |
| A36C U57A | < 1e-05 |
| A36C G40A C68G | < 1e-05 |
| A15U A36U A39C | < 1e-05 |
| C10U G13A | < 1e-05 |
| A36U A53U U65C | < 1e-05 |
| A33C U46G A52U | < 1e-05 |
| A12U C34A A39U C70U | < 1e-05 |
| C16U A36U A39U | < 1e-05 |
| A33U A36C G38A A52U | < 1e-05 |
| A14U C50G G62A A64G | 0.000115 ± 2.4e-05 |
| G35A A36G G51U | < 1e-05 |
| A12U A42U C70U | 0.00014 ± 3.1e-05 |
| C16A G35U G44A U69G C70G | < 1e-05 |
| G35A U49C G63U | < 1e-05 |
| G59A U65C C70A | < 1e-05 |
| A15U C34G U55A | < 1e-05 |
| A33U C50A G66A | < 1e-05 |
| G9U A14U U31A U46G G59U G66C C67G | < 1e-05 |
| C11A A52C | < 1e-05 |
| A12U G40U U54A | 0.000861 ± 0.00024 |
| C11A U54G A64G U69G | 9.78e-05 ± 2.2e-05 |

| Variant | self-cleavage kobs at 10000 uM GlcN6P [s⁻¹] |
| --- | --- |
| G9A U55G C58G | < 1e-05 |
| G35U G38U U49G C50A | < 1e-05 |
| C10G U30A G44A | < 1e-05 |
| A15U A39G U57C | 6.65e-05 ± 1.8e-05 |
| U30C C50A U55G | < 1e-05 |
| G59C G63C C70A | < 1e-05 |
| C8G U47A A64U C71A | < 1e-05 |
| C16A U31G G38U A53G | < 1e-05 |
| U30A A48U A53G G63U | < 1e-05 |
| C10U U54A C68G | < 1e-05 |
| C8G G41C G63A | < 1e-05 |
| A6U G35U G37C A53G | < 1e-05 |
| C16A U30C A53C C70G | < 1e-05 |
| C10G C16U C70A | < 1e-05 |
| U31A G38U U49G U65G | < 1e-05 |
| G43U C58U G63A C68A | < 1e-05 |
| G35A G37C A52U U65G C70A | < 1e-05 |
| C8U G43A G60U | < 1e-05 |
| C16G G29U C58A | 0.000585 ± 0.00014 |
| G13C G38U A48U C50A | < 1e-05 |
